Results published in article PMC4336329 (PLoS ONE, 2015).
Among all 310,000 compounds or so, about 2,200 (0.71%) showed an effect of 50% or more. The effect is printed as a negative number. Some of the results follow.

Each molecule was assayed against human ether-à-go-go-related gene (hERG) potassium channel (human, UniProt Q12809) (assay: primary screen, population patch clamp on CHO cells stably expressing hERG).
Sequence of human ether-à-go-go-related gene (hERG) potassium channel (Q12809 whole entry, looked up): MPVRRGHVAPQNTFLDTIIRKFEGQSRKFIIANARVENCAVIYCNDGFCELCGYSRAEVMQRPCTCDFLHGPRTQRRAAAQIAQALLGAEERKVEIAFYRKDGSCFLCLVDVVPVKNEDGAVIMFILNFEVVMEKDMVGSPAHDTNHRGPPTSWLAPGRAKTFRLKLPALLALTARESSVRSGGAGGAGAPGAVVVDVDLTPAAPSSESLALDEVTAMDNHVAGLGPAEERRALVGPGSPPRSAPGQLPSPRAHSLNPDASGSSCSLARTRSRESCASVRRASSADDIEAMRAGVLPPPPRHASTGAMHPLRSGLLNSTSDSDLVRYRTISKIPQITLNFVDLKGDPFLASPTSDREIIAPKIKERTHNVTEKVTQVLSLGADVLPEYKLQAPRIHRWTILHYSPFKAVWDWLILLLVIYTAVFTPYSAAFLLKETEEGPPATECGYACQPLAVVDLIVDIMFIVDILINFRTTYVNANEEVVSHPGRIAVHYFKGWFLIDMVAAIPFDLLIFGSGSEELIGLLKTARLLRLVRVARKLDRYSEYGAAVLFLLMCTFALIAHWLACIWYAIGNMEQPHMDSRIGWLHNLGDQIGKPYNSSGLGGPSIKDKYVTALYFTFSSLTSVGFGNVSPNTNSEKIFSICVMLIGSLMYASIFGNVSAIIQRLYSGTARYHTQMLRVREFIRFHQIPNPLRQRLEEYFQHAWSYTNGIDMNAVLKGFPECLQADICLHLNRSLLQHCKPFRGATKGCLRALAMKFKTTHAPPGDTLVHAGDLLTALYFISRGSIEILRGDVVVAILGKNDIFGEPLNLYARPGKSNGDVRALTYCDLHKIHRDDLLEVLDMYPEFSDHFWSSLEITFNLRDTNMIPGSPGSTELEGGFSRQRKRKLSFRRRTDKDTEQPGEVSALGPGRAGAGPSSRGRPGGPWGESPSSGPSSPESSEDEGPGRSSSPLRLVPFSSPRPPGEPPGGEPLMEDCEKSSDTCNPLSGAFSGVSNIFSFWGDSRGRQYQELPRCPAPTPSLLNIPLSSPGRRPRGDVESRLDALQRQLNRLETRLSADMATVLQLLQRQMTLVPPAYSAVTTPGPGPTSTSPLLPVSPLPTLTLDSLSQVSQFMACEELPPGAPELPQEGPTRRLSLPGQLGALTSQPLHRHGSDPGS

Compound	hERG current change (%, negative = inhibition) at 1uM [%]
Cc1cc(=O)[nH]c(SCC(=O)C23CC4CC(CC(C4)C2)C3)c1C#N	13.6
COc1ccc(C(=O)NC2CC2)cc1OC1CCN(Cc2ccc(F)cc2)CC1	-81.9
O=C(C1=C(O)C(=O)N(CCc2ccccc2)C1c1cccnc1)c1ccco1 (stereo not drawn)	5.33
CCC(=O)c1ccc(OCC(=O)NCC2COc3ccccc3O2)cc1 (stereo not drawn)	-1.99
CCN(CC)S(=O)(=O)c1cc(C(=O)OCC(=O)Nc2cccc(C)c2C)ccc1F	8.54
CN(c1cccc(NC(=O)CCSc2ccccc2)c1)S(C)(=O)=O	-2.89
COc1ccccc1NS(=O)(=O)c1ccc(Br)s1	-9.96
Fc1ccc(-c2cc(-c3cccs3)cc(-c3ccccc3)n2)cc1	12.7
COC(=O)CC1=C(C(=O)OC)C(c2ccc3c(c2Cl)OCO3)C(C#N)=C(N)O1 (stereo not drawn)	-7.56
CC1CCCCN1Cc1c(O)ccc2c(=O)c(-c3ccc(Cl)cc3Cl)coc12 (stereo not drawn)	-4.43
Cc1cc(C)c(C(=O)COC(=O)CCNS(=O)(=O)c2c(Cl)cccc2Cl)cc1C	12.2
CC1(C)S[C@@H]2[C@H](N=CN3CCCCCC3)C(=O)N2[C@H]1C(=O)O	7.21
CCCCC(CC(O)COCCC)c1n[nH]c(=S)n1-c1ccccc1 (stereo not drawn)	10.8
CC1(C)SC2c3ccccc3C(=O)N2[C@@H]1C(=O)NCc1ccco1 (stereo partly drawn)	6.96
O=C1c2ccccc2C(Nc2ccc3c(c2)OCCO3)N1c1ccccn1 (stereo not drawn)	1.35
COc1cccc(OC)c1C(=O)n1nc(C)cc1C	8.86
CCN(Cc1ccccc1)S(=O)(=O)c1csc(C(N)=O)c1	-2.28
O=C(CCCn1cc([N+](=O)[O-])cn1)NC1CCCCCC1	4.37
CCOc1cccc2cc(C(N)=O)c(=NCc3ccccc3)oc12	0.376
COc1cc(CNn2nnnc2N)ccc1OCC(=O)NC(C)(C)C	0.339
COc1ccc(-n2c(O)c(C=NCCN3CCN(C(C)=O)CC3)c(=O)[nH]c2=S)cc1	13.2
Cc1ccccc1NC(=O)CCC(=O)N/N=C/c1cc([N+](=O)[O-])ccc1O	0.664
O=C(NCc1ccco1)c1ccc(Cn2c(=O)c3ccccc3n(Cc3cccc(F)c3)c2=O)cc1	7.65
CC(C)CC1NC(=O)N(Cc2nc3ccccc3s2)C1=O (stereo not drawn)	1.54
